From publication PMC7698926 (International Journal of Molecular Sciences, 2020)
Where a SMILES comes first, the peptide text is derived from it.

Tested on: X. oryzae pv. oryzae
Type: cell-based, Xanthomonas oryzae pv. oryzae
Conditions: peptide 1 × MIC, KCl 1.5, 3, 4.5 mM, CaCl2 1.25, 2.5, 5 mM, MgCl2 0.5, 1, 2 mM, OD600

Structure (SMILES): CC[C@H](C)[C@H](NC(=O)[C@H](CO)NC(=O)[C@H](CCCCN)NC(=O)[C@H](CCCNC(=N)N)NC(=O)[C@@H](NC(=O)[C@H](CCC(=O)O)NC(=O)[C@H](Cc1ccc(O)cc1)NC(=O)[C@H](CS)NC(=O)[C@H](Cc1c[nH]cn1)NC(=O)[C@@H](NC(=O)[C@H](Cc1c[nH]cn1)NC(=O)[C@H](CCCCN)NC(=O)[C@H](CCC(=O)O)NC(=O)[C@H](CO)NC(=O)[C@H](CO)NC(=O)[C@@H](NC(=O)[C@H](CS)NC(=O)[C@H](CC(N)=O)NC(=O)[C@H](Cc1ccc(O)cc1)NC(=O)[C@@H](NC(=O)[C@H](Cc1c[nH]cn1)NC(=O)[C@@H](NC(=O)[C@H](Cc1ccc(O)cc1)NC(=O)[C@@H](NC(=O)[C@H](CC(=O)O)NC(=O)[C@@H](NC(=O)[C@@H](N)CC(C)C)C(C)C)[C@@H](C)CC)[C@@H](C)O)C(C)C)[C@@H](C)O)[C@@H](C)O)[C@@H](C)CC)C(=O)N[C@@H](CO)C(=O)O [OrR214] (H-LVDIYTHVYNCTSSEKHTHCYEIRKSIS-OH)
- antibacterial activity in K+, Ca2+ and Mg2+ salt solutions: slightly inhibited
